Consider one compound from article PMC4357395 (Journal of Medicinal Chemistry, 2015).

One experiment deals with PanK3 (Homo sapiens, UniProt Q9H999). Type of experiment: biochemical. As to conditions: PanK3 kinetics.
For the next experiment, the target named is ATP–PanK3 complex (Homo sapiens, UniProt Q9H999). Type of experiment: binding.

Read-outs that look alike come from different tables or passages of the source.

UniProt Q9H999, sequence (Q9H999 whole entry): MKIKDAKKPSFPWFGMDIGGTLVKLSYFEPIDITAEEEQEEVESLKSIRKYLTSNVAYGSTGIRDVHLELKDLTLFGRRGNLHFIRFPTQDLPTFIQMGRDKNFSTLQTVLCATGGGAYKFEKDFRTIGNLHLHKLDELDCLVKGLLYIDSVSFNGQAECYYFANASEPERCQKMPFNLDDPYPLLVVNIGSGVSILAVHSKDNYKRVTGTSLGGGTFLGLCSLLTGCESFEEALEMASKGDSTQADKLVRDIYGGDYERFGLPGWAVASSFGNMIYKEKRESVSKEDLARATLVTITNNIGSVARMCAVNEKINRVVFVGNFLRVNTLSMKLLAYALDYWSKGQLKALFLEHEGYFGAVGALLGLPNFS

With `CSc1cccc(NC(=O)CCc2c(C)nc3c4cccnc4nn3c2C)c1` [Compound 7], the “effect on Vmax and Km for ATP” value on PanK3 was “lowered both the Vmax and Km for ATP”. The “thermal stabilization of PanK3” value was “did not stabilize” at ATP–PanK3 complex (ATP absent) and “increased” at ATP–PanK3 complex (in the presence of 2 mM ATP/Mg2+).
